The source of these data is PubChem BioAssay (EPA / NIEHS).

Assay [1] in a line: APR_HepG2_CellLoss_72hr: Apredica 72-hour HepG2 Assay for Cell Loss (AID 2282915). The following applies: high-content imaging. Summed up: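 HepG2 cells were exposed for 72 hr to compounds at 0.39–200 uM (ten concentrations, duplicate) in 0.5% v/v final DMSO. Nuclei were stained with Hoechst 33342 after 3.7% formaldehyde fixation, imaged at 20x, and counted; fits bidirectional versus DMSO.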

Assay [2] can be described thus: ATG_BRE_CIS: Attagene CIS-FACTORIAL HepG2 Assay for human Bone Morphogenetic Protein (BMP) Response Element (BRE) (AID 2282933). As to conditions: HepG2 BMP response element reporter, Attagene transcription factor profiling; actives raise or lower the signal. A digest of the protocol: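 HepG2 cells transiently transfected with multiplexed cis-element reporter units were dosed with chemical for 24 h. Reporter mRNA was measured by RT-PCR with fluorescent labelling, HpaI digestion and capillary electrophoresis; bidirectional fitting relative to DMSO.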

Assay [3] deals with Retinoic acid receptor alpha (Homo sapiens) (UniProt P10276). Kind of assay: ATG_DR5_RAR_CIS: Attagene CIS-FACTORIAL HepG2 Assay for human Retinoic Acid Receptor Alpha (RARE), DR5 submotif (AID 2282934).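 Further: reporter responds to endogenous RAR alpha beta and gamma in HepG2 not RARA alone.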 As to conditions: HepG2 Attagene cis-factorial RARE DR5 reporter, mRNA; actives raise or lower the signal.
Chain of UniProt P10276 (P10276 whole entry, looked up): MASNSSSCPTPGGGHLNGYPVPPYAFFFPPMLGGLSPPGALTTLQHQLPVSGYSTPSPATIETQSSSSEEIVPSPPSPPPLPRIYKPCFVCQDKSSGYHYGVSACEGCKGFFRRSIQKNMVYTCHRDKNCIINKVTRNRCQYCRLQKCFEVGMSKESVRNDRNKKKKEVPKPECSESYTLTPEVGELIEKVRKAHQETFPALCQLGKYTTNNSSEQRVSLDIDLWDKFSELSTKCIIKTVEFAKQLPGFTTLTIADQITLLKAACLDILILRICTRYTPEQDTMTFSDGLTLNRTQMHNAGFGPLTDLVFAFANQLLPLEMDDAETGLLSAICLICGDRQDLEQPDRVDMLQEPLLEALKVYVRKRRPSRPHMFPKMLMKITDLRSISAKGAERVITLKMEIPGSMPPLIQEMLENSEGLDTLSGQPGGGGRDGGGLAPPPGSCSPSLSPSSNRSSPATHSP
Assay [4] in a line: ATG_PBREM_CIS: Attagene CIS-FACTORIAL HepG2 Assay for human Phenobarbital-responsive Enhancer Module (PBREM) (AID 2282955). The following applies: HepG2 PBREM cis-reporter, Attagene multiplexed transcription; actives raise or lower the signal. A digest of the protocol:
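After a 24 h incubation with test chemical, transfected HepG2 cells yield total RNA; reporter-specific RT-PCR products are fluorescently labelled, HpaI-digested and resolved by capillary electrophoresis against ROX size standards.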

The nature of assay [5]: ATG_VDRE_CIS: Attagene CIS-FACTORIAL HepG2 Assay for human Vitamin D Receptor Element (VDRE) (AID 2282968). As to conditions: HepG2 VDRE cis-reporter transcription, actives raise or lower the signal. Summed up:
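Transfected HepG2 reporter cells, chemical treatment 24 h. RNA isolated, cDNA amplified with reporter-specific primers, products analysed by capillary electrophoresis. Endpoint fitted in both directions versus DMSO.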

A short description of assay [6]: ATG_NRF2_ARE_CIS: Attagene CIS-FACTORIAL HepG2 Assay for human Nuclear Factor Erythroid 2 Related Factor 2 (NFR2) response to Antioxidant Response Elements (ARE) (AID 2282992).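 Further: reporter mRNA level measured by RT-PCR and capillary electrophoresis fluorescence.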 The following applies: HepG2 Attagene ARE/NRF2 reporter, transcription factor activity; actives raise or lower the signal. A digest of the protocol:
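Fluorescence intensity of reporter-specific cDNA fragments, separated by capillary electrophoresis, reflects mRNA induction in transfected HepG2 cells at 24 h. Activity is fitted bidirectionally, DMSO serving as baseline.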

Read-out in assay [7]: E-selectin (Homo sapiens) (UniProt P16581)
Chain of UniProt P16581 (P16581 whole entry, looked up): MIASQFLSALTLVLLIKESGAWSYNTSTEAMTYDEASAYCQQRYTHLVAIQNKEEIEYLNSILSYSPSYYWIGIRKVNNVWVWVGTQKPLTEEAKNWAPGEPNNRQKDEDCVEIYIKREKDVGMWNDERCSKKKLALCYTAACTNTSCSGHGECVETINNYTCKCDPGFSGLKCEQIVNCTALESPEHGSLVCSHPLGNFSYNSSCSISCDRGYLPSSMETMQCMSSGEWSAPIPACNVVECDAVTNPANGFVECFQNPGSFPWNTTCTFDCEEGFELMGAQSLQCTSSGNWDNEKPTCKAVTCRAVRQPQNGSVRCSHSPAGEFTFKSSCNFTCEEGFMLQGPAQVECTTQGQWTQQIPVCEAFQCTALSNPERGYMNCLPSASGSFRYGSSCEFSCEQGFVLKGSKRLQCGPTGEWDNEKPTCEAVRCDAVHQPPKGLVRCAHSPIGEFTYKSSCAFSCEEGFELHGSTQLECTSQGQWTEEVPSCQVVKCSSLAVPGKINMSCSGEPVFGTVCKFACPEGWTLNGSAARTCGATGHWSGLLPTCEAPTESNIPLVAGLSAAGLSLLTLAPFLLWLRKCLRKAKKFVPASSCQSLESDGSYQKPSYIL
Kind of assay: BSK_3C_Eselectin: BioMAP Diversity Plus: 3C Assay for Eselectin Biomarker Activity (AID 2283015). The following applies: actives raise or lower the signal; primary human endothelial cells (HUVEC). Summed up: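 Primary human umbilical vein endothelial cells (3C system) were dosed with chemical and cell-surface E-selectin measured by ELISA 24 h later. Bidirectional curve fitting used DMSO as negative control and baseline.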

Read-out in assay [8]: Interleukin-8 (IL8), CXCL8 (gene 3576)
Kind of assay: BSK_3C_IL8: BioMAP Diversity Plus: 3C Assay for Interleukin-8 (IL8) Biomarker Activity (AID 2283020). The following applies: actives raise or lower the signal; primary human endothelial cells (HUVEC). A digest of the protocol:
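Using DMSO-treated wells as the baseline, bidirectional curve fitting was applied to ELISA-measured IL-8 from human umbilical vein endothelial cultures sampled 24 h after compound addition.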

Read-out in assay [9]: Vascular cell adhesion molecule 1 (VCAM1), VCAM1 (gene 7412)
Kind of assay: BSK_4H_VCAM1: BioMAP Diversity Plus: 4H Assay for Vascular cell adhesion molecule 1 (VCAM1) Biomarker Activity (AID 2283033). The following applies: actives raise or lower the signal; primary human endothelial cells (HUVEC). A digest of the protocol: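 In this human endothelial (HUVEC) system, biomarker ELISA was run 24 h after compound addition, and total protein in parallel wells was assessed by SRB at 560 nm; DMSO served as negative control.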

Read-out in assay [10]: Interleukin-8 (IL8), CXCL8 (gene 3576)
Kind of assay: BSK_LPS_IL8: BioMAP Diversity Plus: LPS Assay for Interleukin-8 (IL8) Biomarker Activity (AID 2283078). The following applies: actives raise or lower the signal; primary human HUVEC with PBMC. A digest of the protocol: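 Human umbilical vein endothelial cells co-cultured with PBMC were stimulated with LPS; IL-8 levels were measured by ELISA 24 h after chemical dosing. Activity was fitted bidirectionally against DMSO as negative control and baseline.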

Assay [11] in a line: BSK_LPS_SRB: Viability Assessment in the BioMAP Diversity Plus: LPS Assay (AID 2283079).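 Further: total protein by sulforhodamine B absorbance as a cytotoxicity measure; measured one day after compound addition; fitted in both directions against DMSO so loss or gain of signal counts.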 As to conditions: primary human HUVEC with PBMC. Summed up:
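Human umbilical vein endothelial cells co-cultured with PBMC (LPS system) were dosed for 24 h. Total protein was stained with 0.1% sulforhodamine B after 10% TCA fixation, read at 560 nm, and fitted bidirectionally against DMSO baseline.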

Assay [12] concerns the target Cytochrome P450 2C19 (Homo sapiens) (UniProt P33261). Kind of assay: NVS_ADME_hCYP2C19: NovaScreen (NVS) CYP450-related Enzyme Activity (ADME) Assay for human CYP2C19 (AID 2283113; active means hit-call score of the fitted dose curve at least 0.9, where 1 is the maximum;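 further: potency for inhibition seen as loss of fluorescent signal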). A digest of the protocol: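 Cell-free assay of recombinant human CYP2C19 expressed in insect cells, with a fluorogenic substrate; fluorescence intensity read 1 hour after dosing. Loss of signal relative to acetonitrile negative control indicates inhibition. Primary screen at 10 uM in duplicate, then concentration series.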
Chain of UniProt P33261 (P33261 whole entry, looked up): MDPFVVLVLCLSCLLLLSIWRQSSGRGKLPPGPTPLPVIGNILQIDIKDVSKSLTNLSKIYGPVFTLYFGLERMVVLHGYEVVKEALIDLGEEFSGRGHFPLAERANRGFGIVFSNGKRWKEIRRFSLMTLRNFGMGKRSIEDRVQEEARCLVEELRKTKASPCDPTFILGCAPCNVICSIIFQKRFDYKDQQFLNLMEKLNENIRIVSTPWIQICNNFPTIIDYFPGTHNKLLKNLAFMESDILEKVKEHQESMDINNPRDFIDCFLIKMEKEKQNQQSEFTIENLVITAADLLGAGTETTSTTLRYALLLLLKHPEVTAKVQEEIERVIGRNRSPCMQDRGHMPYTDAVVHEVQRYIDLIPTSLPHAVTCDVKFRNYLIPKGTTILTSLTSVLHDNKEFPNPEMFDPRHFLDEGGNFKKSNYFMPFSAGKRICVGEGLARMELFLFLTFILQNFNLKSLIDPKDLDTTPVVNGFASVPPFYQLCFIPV

Assay [13] concerns the target human Peripheral-type Benzodiazepine Receptor (PBR), TSPO (gene 706) (UniProt P30536). Kind of assay: NVS_MP_hPBR: NovaScreen (NVS) Membrane Protein Assay for human Peripheral-type Benzodiazepine Receptor (PBR) (AID 2283331; active means hit-call score of the fitted dose curve at least 0.9, where 1 is the maximum;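 further: hits reduce radioligand binding relative to DMSO baseline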). A digest of the protocol: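 Using human colon-derived membranes, this one-endpoint binding test reads radioligand loss by scintillation after 1 h. Screening started at 25 uM in duplicate, with positive and negative controls on every plate, and actives moved to dose series.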
Chain of UniProt P30536 (P30536 whole entry, looked up): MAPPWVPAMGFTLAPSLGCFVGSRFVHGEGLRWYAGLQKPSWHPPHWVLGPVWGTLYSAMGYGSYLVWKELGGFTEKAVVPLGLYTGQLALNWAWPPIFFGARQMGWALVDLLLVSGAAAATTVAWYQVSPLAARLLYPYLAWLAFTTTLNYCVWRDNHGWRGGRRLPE

Assay [14] relates to Sodium/Iodide Symporter (NIS), SLC5A5 (gene 6528). The experiment in a line: CPHEA_Stoker_NIS_Inhibition_RAIU: CPHEA's Radioactive Iodide Uptake (RAIU) Assay for Sodium/Iodide Symporter (NIS) Inhibition, Stoker and Laws Labs (AID 2283841; active means hit-call score of the fitted dose curve at least 0.9, where 1 is the maximum). Summed up: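 HEK293T cells stably expressing human NIS (hNIS-HEK293T-EPA) were exposed to test chemicals at 0.001–100uM (0.5% final DMSO) with 125I at a final 329pM in HBSS/10mM HEPES pH 7.4. After 2 hours at room temperature and ice-cold washes, intracellular 125I was counted as CPM and normalized to DMSO wells.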

A short description of assay [15]: CPHEA_Stoker_NIS_Cytotoxicity: Cytotoxicity Assessment for CPHEA's Radioactive Iodide Uptake (RAIU) Assay for Sodium/Iodide Symporter (NIS) Inhibition, Stoker and Laws Labs (AID 2283897; active means hit-call score of the fitted dose curve at least 0.9, where 1 is the maximum;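 further: active means loss of ATP signal versus DMSO meaning cytotoxicity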). A digest of the protocol:
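hNIS-HEK293T-EPA human kidney cells were exposed for 2 hours at room temperature to test chemicals (0.001–100uM, 0.5% final DMSO) in HEPES-buffered HBSS, pH 7.4. Viability was read as ATP content by luciferase bioluminescence, loss of signal versus DMSO.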

Assay [16] in a line: APR_HepG2_CellLoss_24hr: Apredica 24-hour HepG2 Assay for Cell Loss (AID 2282908).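 Further: fit in both directions so a hit may be cell loss or gain.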 The following applies: high-content imaging. Summed up:
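Duplicate wells received compound at ten concentrations (0.39–200 uM; final DMSO 0.5% v/v). After fixation with formaldehyde, nuclei stained with Hoechst 33342 were imaged at 20x. Loss or gain of cell count was fitted relative to DMSO controls.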

Assay [17] addresses Glucocorticoid receptor (Homo sapiens) (UniProt P04150). Kind of assay: NVS_NR_hGR: NovaScreen (NVS) Nuclear Receptor Binding Assay for human Glucocorticoid Receptor (GR) (AID 2283363; active means hit-call score of the fitted dose curve at least 0.9, where 1 is the maximum;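 further: activity is loss of specific radioligand binding signal relative to DMSO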). Summed up:
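Single-readout cell-free binding: radioligand plus extracted receptor, 16-hour dosing, filter radiodetection; 25 uM duplicate primary, concentration series secondary.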

A number of entries come with more than one value. The other results are left out here. The source may hold further records. The values listed for one entry are repeats (runs, samples, wells, individuals or studies). Inconclusive results are not listed. How the source made its calls, unless noted: active means hit-call score of the fitted dose curve at least 0.9, where 1 is the maximum; inactive means score below 0.9. A structure can be active in one record and inactive in another.

Chain of UniProt P04150 (P04150 whole entry, looked up): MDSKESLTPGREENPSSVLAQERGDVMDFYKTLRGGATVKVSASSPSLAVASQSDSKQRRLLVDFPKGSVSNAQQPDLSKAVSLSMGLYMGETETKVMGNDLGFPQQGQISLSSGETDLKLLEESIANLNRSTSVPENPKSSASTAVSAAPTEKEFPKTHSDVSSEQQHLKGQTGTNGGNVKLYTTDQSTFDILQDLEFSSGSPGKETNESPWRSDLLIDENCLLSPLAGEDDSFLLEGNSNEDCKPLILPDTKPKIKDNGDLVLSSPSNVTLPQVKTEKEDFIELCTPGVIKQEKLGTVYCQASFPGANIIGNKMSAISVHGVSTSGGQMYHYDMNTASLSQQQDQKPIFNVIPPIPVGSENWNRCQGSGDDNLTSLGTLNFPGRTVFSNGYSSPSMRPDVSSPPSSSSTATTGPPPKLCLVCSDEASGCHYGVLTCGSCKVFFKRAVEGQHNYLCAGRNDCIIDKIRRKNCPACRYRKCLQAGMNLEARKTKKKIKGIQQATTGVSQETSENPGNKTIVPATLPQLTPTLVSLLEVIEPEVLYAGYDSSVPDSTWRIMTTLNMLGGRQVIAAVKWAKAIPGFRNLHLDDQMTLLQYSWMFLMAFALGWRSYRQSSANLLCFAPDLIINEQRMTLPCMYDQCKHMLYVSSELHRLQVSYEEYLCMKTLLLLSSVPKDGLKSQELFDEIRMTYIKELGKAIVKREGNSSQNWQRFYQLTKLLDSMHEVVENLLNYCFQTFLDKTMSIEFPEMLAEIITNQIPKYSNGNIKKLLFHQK

The term AC50 denotes the midpoint of the concentration-response curve, whichever way the signal moves. Regarding `CO/C=C(/C(=O)OC)c1ccccc1Oc1cc(Oc2ccccc2C#N)ncn1`, the AC50 entry is “active: 14.4, 7.82, 11.1, 28 µM [separate samples]” in [1]; “active: 79, 69.6, 33.5, 84.5, 21.2 µM [separate samples]” in [2]; “active: 2.09, 1.88, 2.06, 17 µM [separate samples]” in assay [3]; “active: 2.18, 2.53, 1.68, 20.5 µM [separate samples]” in assay [4]; “active: 1.96, 2.5, 2.84, 4.26, 1.28, 15.1 µM [separate samples]” in [5]; “active: 13, 9.94, 1.38, 2.75, 2.67 µM [separate samples]” in assay [6]. Also, the AC50 entry in assay [7] was “active: 5.71, 5.6, 5.72, 26.7 µM [separate samples]”; in [8], “active: 10.1, 8.5, 7.4, 22.9 µM [separate samples]”; in assay [9] it was “active: 13.4, 31.8, 34, 9.63 µM [separate samples]”; in assay [10], “active: 27.9 µM, 6.93 µM, 8.14 µM, 540 nM [separate samples]”; in [11], “active: 27, 11.5, 11.9, 5.98 µM [separate samples]”; in assay [12] it was “active: 2.86, 5.48, 4.01, 1.55 µM [separate samples]”. In addition, the AC50 entry was “active: 5.71, 6.59, 7.14, 6.13, 2.18 µM [separate samples]” in assay [13]; “active: 25.2, 14.8, 24, 50, 41.4 µM [separate samples]” in assay [14]; “active: 77.6 µM, 50 µM, 418 nM, 9.92 µM, 30.8 µM, 25.6 µM, 35.5 µM [separate samples]” in assay [15].

`CCCN(CCC)c1c([N+](=O)[O-])cc(S(N)(=O)=O)cc1[N+](=O)[O-]`: the AC50 entry was “active: 30.8, 28.6, 52.5, 137 µM [separate samples]” in assay [16] and “active: 297 nM, 1.12 µM, 933 nM, 1.2 µM [separate samples]” in [17].
